Measurements published in the RNAGym collection of RNA variant scans (doi:10.1093/nar/gkz1192).
The source gives no read counts; variants with many changes may rest on few reads.

B1: CPEB3 Ribozyme (parent)
chain: UAACAGGGGGCCACAGCAGAAGCGUUCACGUCGCAGCCCCUGUCAGAUUCUGGUGAAUCUGCGAAUUCUGCUGUAUAUCUC

Variants of: B1
Experiment: self-cleavage, relative activity (ratio to wild type); higher = more cleavage; in vitro, sequencing
Outline: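 After error-prone PCR and barcoding, CPEB3 ribozyme mutant libraries were transcribed with T7 RNA polymerase at 37°C for 5 hours, then given 15 min with DNase I before an EDTA stop, and they cleaved during both steps. Reverse transcription with template switching preceded Illumina sequencing. Relative activity divides a variant's cleaved/total read fraction by the unmutated ribozyme's. At least 5 reads were required per variant, and three batches were averaged.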

Row | Variant | self-cleavage
1 | UAACAGGGGGCCACAGCAGGGGCGUUCACGUCGCAGCCCCUGUCAGAUUCUGGUGACUCUGCGAAUUCUGCUGUAUAUCUC [A20G A21G A57C] | 0.33
2 | UAACAGGGGGCCACAGCAGGGGCGUUCACGUCGCAGCCCCUGUCAGAUUCUGGUGAGUCUGCGAAUUCUGCUGUAUAUCUC [A20G A21G A57G] | 0.1
3 | UAACAGGGGGCCACAGCAGGGGCGUUCACGUGGCAGCCCCUGUCAGAUACUGGUGAAUCUGCGAAUCCUGCUGCAUAUCAC [A20G A21G C32G U49A U67C U74C U80A] | 0.05
4 | UAACAGGGGGCCACAGCAGGGGCGUUCACGUCGCAGCCCCUGUAAGAUUCUGGUGAAUCUGCGAAUUCUGCUGUAUAUCUC [A20G A21G C44A] | 0.26
5 | UAACAGGGGGCCACAGCAGGGGCGUUCACGUCGCAACCCCUGUCGGAUUCUGGUGAAUCUGCGAGUUCUGCUGUAUAUCUC [A20G A21G G36A A45G A65G] | 0.08
6 | UAACAGGGGGCCACAGCAGGGGCGAUCGCGUCGCAGCCCCUGUCAGAUUCUGGUGAAUCUGCGAAUUCUGCUGUAUAUCCC [A20G A21G U25A A28G U80C] | 0.08
7 | UAACAGGGGGCCACAGCAGGGGCGCUCACGUCGCAGCCCCUGUCAGAUUCUGGAGAAUCUGCGAAUCCUGCUGUAUAUCUC [A20G A21G U25C U54A U67C] | 0.04
8 | UAACAGGGGGCCACAGCAGGGGCGUACACGUCGCAGCCCCUGUCAGAUUCUGGUGAAUCUGCGUAUUCUGCUGUAUAUCUC [A20G A21G U26A A64U] | 0.37
9 | UAACAGGGGGCCACAGCAGGGGCGUACACGUCGCAGCCCCUGUCAGAUUCCGGUGAAUCUGCCAAUUCUGCUUUAUACCUC [A20G A21G U26A U51C G63C G73U U78C] | 0.05
10 | UAACAGGGGGCCACAGCAGGGGCGUCCACGUCGCAGCCCCUGUCAGAUUCUGGUGAAUCUGCGAAUUCUGCUGUAUAUCCC [A20G A21G U26C U80C] | 0.27
11 | UAACAGGGGGCCACAGCAGGGGCGUUCACGGCGCAGCCCCUGUCAGAUUCUGGUGAAUCUGCGAAUUCUGCUGUAUAUCUC [A20G A21G U31G] | 0.09
12 | UAACAGGGGGCCACAGCAGGGGCGUUCACGUCGCAGCCCCAGUCAGAUUCUGGUGAAUCUGCGAAUUCUGCUGUAUAUCUC [A20G A21G U41A] | 0.07
13 | UAACAGGGGGCCACAGCAGGGGCGUUCACGUCGCAGCCCCUGUCAGAUUCUGGCGAAUCUGCGAAUUCUGCUGUAUAUCUC [A20G A21G U54C] | 0.41
14 | UAACAGGGGGCCACAGCAGGGGCGUUCACGUCGCAGCCCCUGUCAGAUUCUGGUGAAACUGCGAAUUCUGCUGUAUAUCUC [A20G A21G U58A] | 0.41
15 | UAACAGGGGGCCACAGCAGGGGCGUUCACGUCGCAGCCCCUGUCAGAUUCUGGUGAAUCUGCGAACCCUGCUGUAUAUCUC [A20G A21G U66C U67C] | 0.3
16 | UAACAGGGGGCCACAGCAGGAGCGUUCCCGUCGCAGCCCCUGUCAGAUUAUGGUGAAUCAGCGAAUUCUGCUGUAUAUCUC [A20G A28C C50A U60A] | 0.2
17 | UAACAGGGGGCCACAGCAGGAGCGUUCCCGUCGCAGCCCCUGUCAGAUUCUAGUGAAUCUGCGAAUUCUGCUGUAUAUCUC [A20G A28C G52A] | 0.3

Row | Variant | self-cleavage
18 | UAACAGGGGGCCACAGCAGGAGCGUUCCCGUCGCAGCCCCUGUCAGAUUCAGGUGAAUCUGCGAAUUCUGCUGUAUACCUC [A20G A28C U51A U78C] | 0.26
19 | UAACAGGGGGCCACAGCAGGAGCGUUCGCGUCGCGGCCCAUGUCUGAUUCUGGUGAAUCUGCGAAUUCUGCUGUAUACCUC [A20G A28G A35G C40A A45U U78C] | 0.2
20 | UAACAGGGGGCCACAGCAGGAGCGUUCGCGUCGCAGCCCUUGUCAGAUCCUGGUGAAUCUGCGAACUCUGCUGUAUACCUC [A20G A28G C40U U49C U66C U78C] | 0.04
21 | UAACAGGGGGCCACAGCAGGAGCGUUCGCGUCGCAGCCCCUGUCAGAUUCUGGUGAAUAUGCGGAUUCUGCUGUAUAUCUU [A20G A28G C59A A64G C81U] | 0.14
22 | UAACAGGGGGCCACAGCAGGAGCGUUCGCAUCGCAGCCCCAGUCAGUUUCUGGAGAAUCUGCGAAUUCUGCUGUAUAUCUC [A20G A28G G30A U41A A47U U54A] | 0.07
23 | UAACAGGGGGCCACAGCAGGAGCGUUCGCGCCGCAGCCCCUGUCAGAUUCCGGUGAAUCUGCGAAUUCUGCUGUAUAUCUC [A20G A28G U31C U51C] | 0.3
24 | UAACAGGGGGCCACAGCAGGAGCGUUCGCGUCGCAGCCCCCGUCAGAUUCUGGUGAAUCUGCGAAUUCUGCCGUAUAUCUC [A20G A28G U41C U72C] | 0.39
25 | UAACAGGGGGCCACAGCAGGAGCGUUCGCGUCGCAGCCCCUGACAGAUUCUGGUGGAUCUGCGAUUUCUGCUGUAUAUCUC [A20G A28G U43A A56G A65U] | 0
26 | UAACAGGGGGCCACAGCAGGAGCGUUCGCGUCGCAGCCCCUGUCAGACUCUGGUGGAUCUGCGAAUUCAGCUGUAUAUCUC [A20G A28G U48C A56G U69A] | 0.1
27 | UAACAGGGGGCCACAGCAGGAGCGUUCGCGUCGCAGCCCCUGUCAGAUUCUGGCGAAUCUGCGAAUUCUGCUGUAUAUCUC [A20G A28G U54C] | 0.49
28 | UAACAGGGGGCCACAGCAGGAGCGUUCGCGUCGCAGCCCCUGUCAGAUUCUGGUGAAGCUGCGAAUUCAGCUGUAUAUCAC [A20G A28G U58G U69A U80A] | 0.06
29 | UAACAGGGGGCCACAGCAGGAGCGUUCGCGUCGCAGCCCCUGUCAGAUUCUGGUGAAUCAGCGAUUUCUCCUGUAUAUCUC [A20G A28G U60A A65U G70C] | 0.07
30 | UAACAGGGGGCCACAGCAGGAGCGUUCUCGUCGCAGCCCCUGUCGGAUUCUGGUGAAUCUGCGGAUUCUGCUGUAUAUCUC [A20G A28U A45G A64G] | 0.23
31 | UAACAGGGGGCCACAGCAGGAGCGUUCUUGUCGCAGCCCCUGUCAGAUUCUGGUGAAUCUGCGAAUUCUGCUGUAUAACUC [A20G A28U C29U U78A] | 0.08
32 | UAACAGGGGGCCACAGCAGGAGCGUUCUCGCCGCAGCCCCUGUGAGAUUCUGGUGAAUCUGCGAAUUCUGCCGUAUAUCUC [A20G A28U U31C C44G U72C] | 0.26
33 | UAACAGGGGGCCACAGCAGGAGCGUUCUCGCCGCAGCCCCAGUCAGAUUCUGGUGAAUCUGCGGAUUCUGCUGUAUAUCUC [A20G A28U U31C U41A A64G] | 0.33
34 | UAACAGGGGGCCACAGCAGGAGCGUUCUCGUCGCAGCCCCUGUCAGAUUCUGGUGAAUCUGCGAAUUCUGCUGUAUAUCAC [A20G A28U U80A] | 0.84
